# Assay results as given in the supplement of paper PMC3334620.
# In all, about 33,000 sequences were measured (“E-score (-0.5 to 0.5)”: median about -0.016, highest 2% from about 0.31 on). The list shows a part of the results.
# Biological target: Cst6 (UniProt P40535)
# Experiment: PBM E-score (8-mer binding enrichment) (E-score (-0.5 to 0.5)); higher = stronger / more preferred TF binding; most listed sequences are background and not binding sites
# Conditions: protein concentration: 200 nM; construct: GST-DNA-binding domain
# Procedure, shortened: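 Masliner-normalised scans of fluorescent anti-GST signal were the basis for scoring. That signal came from GST-tagged yeast transcription factors applied at about 100-200 nM to double-stranded universal all-10-mer Agilent arrays on fresh or once-stripped slides. Each ungapped eight-base word, pooled with its reverse complement, received an E-score from the Universal PBM Analysis Suite.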
row,Sequence,PBM E-score
1,CCGCGATA,-0.0512
2,CATTTTAA,0.208
3,GCACGAGA,0.0175
4,GCCGGTTA,-0.166
5,AGAGCACA,-0.11
6,TACGACCA,-0.021
7,ACCTATAT,0.273
8,AATCGCTC,-0.266
9,CCGGTAGA,-0.132
10,AAGTTATG,0.248
11,ATCTACGA,-0.0544
12,GAAGTATC,0.105
13,ACTGGGAA,0.0525
14,ACGTGAGT,0.0508
15,CAACCAGG,-0.162
16,AAGCTATG,-0.0495
17,TCGCTCCA,-0.06
18,GCACAACA,-0.00119
19,ACCACTGC,-0.139
20,AGGACGCA,-0.209
21,CCCCGCGG,-0.0982
22,GGTCGCTA,-0.222
23,GGTTTATA,0.0508
24,GATCGTCA,0.294
25,AAGAGCAG,-0.124

row,Sequence,PBM E-score
1,ACTCGGAT,0.038
2,AGCCCGAA,-0.192
3,CAAGTCGA,-0.165
4,CGCACGAA,0.0947
5,GACTTCAA,-0.106
6,CCGGTGTC,-0.213
7,ACAGCGTG,0.0197
8,ACTTGGTG,-0.158
9,AGAGAACT,-0.0611
10,GCGGGGCA,-0.174
11,CAGCTTTC,-0.0784
12,AACAGAAG,0.101
13,ACTCAGTA,0.0552
14,GACTCAGC,-0.202
15,CCACAAGC,-0.236
16,CAACGCCG,0.191
17,CCGTGTAA,0.0882
18,CTACTCAA,0.182
19,AAGGCACC,0.116
20,ACGTGTCA,0.2
21,GCGGTGAC,0.345
22,TAAGGCCA,-0.146
23,CTACGCGC,-0.0816
24,GCGATTGA,-0.00765
25,ACAGTTCT,-0.0938

row,Sequence,PBM E-score
1,CGAGCAAG,-0.193
2,TCTGCGAA,-0.107
3,ACAAAACC,0.17
4,GACAGATC,0.00799
5,AACTCCCT,-0.053
6,CATTTATC,0.151
7,ACCTCGGG,-0.254
8,GAGGGTAA,0.0269
9,ACTCAATG,0.17
10,GTTTTATA,0.122
11,ACGATTCT,0.039
12,ACTCCGAG,-0.0087
13,GCATCTAC,0.0667
14,CTGCTCTC,-0.151
15,GACGACCC,-0.208
16,CGCCGTAC,0.278
17,GACCCAAC,-0.119
18,CCAAGGCA,0.031
19,ACCGTGTC,-0.0674
20,ACACTTCC,0.0379
21,AATGTCGC,0.0324
22,GGGTCGAC,-0.322
23,CTCCGGCA,0.0582
24,CAGCGTAC,-0.113
25,CTCCTTTC,-0.0597

row,Sequence,PBM E-score
1,AAGCTTTA,-0.0344
2,ACTGTAGA,0.101
3,CGGGGTAC,-0.31
4,CAGGTCGC,-0.22
5,TCAAATAA,0.238
6,ATTTCTCA,0.0463
7,ATGGGTTC,-0.254
8,AGGGTATA,-0.0418
9,ATGTGATC,0.139
10,CGTATAAA,0.211
11,GCCTATCA,0.0365
12,ATATAGGA,0.045
13,GGTCGCAA,-0.0741
14,ATCACTTG,0.0983
15,GCGGGGGA,-0.355
16,CCATCACC,0.15
17,AAATCCTG,0.0199
18,CACCGTAC,-0.112
19,CATGCTTA,0.078
20,TCTAATCA,0.174
21,GGATTTTA,0.0738
22,CTACGTAG,0.137
23,AAGCGTCT,-0.28
24,AGGCCTTA,-0.116
25,TATTATCA,0.249

row,Sequence,PBM E-score
1,CAATGACG,0.469
2,ATGTAAGC,0.143
3,CCTAAAGA,-0.0364
4,GTAATCGA,0.268
5,AGTGGCTA,-0.0472
6,ACGAACAC,0.138
7,TGGAAACA,-0.0385
8,GAGATTCA,-0.123
9,CCCTTGAC,-0.0184
10,CAACTATG,0.0897
11,CGATTTCA,0.0133
12,CAGGACTA,-0.267
13,CTCGTTTA,0.109
14,CGTTTCCA,0.134
15,AAGATCTT,0.112
16,CTTTTTAA,0.161
17,CGGCGTCA,0.34
18,CTCTGCAG,-0.24
19,ACAAGCGG,0.0213
20,AATAGACC,0.00116
21,ACCGTAAT,0.167
22,GATGTCAC,0.448
23,ATGAGAAC,0.0633
24,ATCATGAC,0.446
25,ACTATCAA,0.06

row,Sequence,PBM E-score
1,CCAGCCGA,-0.257
2,CGGAACTC,-0.255
3,GTAGGAGA,-0.187
4,AAAGACAG,0.131
5,CCCAGTAG,-0.159
6,GGCATAAA,0.204
7,GACCTGAC,-0.0408
8,ACAGTGAA,0.146
9,AGAGGGCG,-0.0402
10,GAGGCCCA,-0.276
11,AGCCCCTA,-0.372
12,AATGTACC,-0.0127
13,TGAACTAA,0.128
14,CTCGAGAG,-0.134
15,GGATAACC,-0.276
16,AAGTTATC,0.124
17,CCTACTCA,-0.0162
18,CGTTTCCC,-0.06
19,CTCCGTAA,-0.0462
20,CGCGACAG,-0.227
21,CGCACAGA,-0.018
22,CCCATCTC,-0.148
23,AAGCGGAG,-0.214
24,ACACGTTG,-0.099
25,AGAAACGA,0.05

row,Sequence,PBM E-score
1,ATGCCCCG,-0.104
2,ACATCCCC,-0.119
3,CCCCCAAA,-0.178
4,TACCGCAA,0.115
5,CCTCTGAG,-0.254
6,ACGGTGAG,-0.0622
7,CATCCTGA,0.0896
8,CCATGGTA,-0.153
9,GAGATCGC,-0.11
10,AGTAGACC,-0.079
11,CACCCCTA,-0.0641
12,CTGCCTGC,-0.232
13,CGGACCTC,-0.152
14,GCTATAGA,0.0161
15,CCGGAGTC,-0.129
16,AGTTTAAC,-0.0744
17,GATGCGGC,0.237
18,CGAGACTA,0.0119
19,CGCTTGGC,-0.109
20,GCAGGGGA,-0.374
21,AGCCTGGC,-0.298
22,CGGAACGC,-0.103
